Over roughly 33,000 sequences, “E-score (-0.5 to 0.5)” has its median near -0.054; the highest 2% begin near 0.35. Some of the results follow.
target: T1, Stb5 (UniProt P38699); test: PBM E-score (8-mer binding enrichment) (E-score (-0.5 to 0.5)); higher = stronger / more preferred TF binding; most listed sequences are background and not binding sites; conditions: protein concentration: 200 nM; construct: GST-full length
T1 sequence: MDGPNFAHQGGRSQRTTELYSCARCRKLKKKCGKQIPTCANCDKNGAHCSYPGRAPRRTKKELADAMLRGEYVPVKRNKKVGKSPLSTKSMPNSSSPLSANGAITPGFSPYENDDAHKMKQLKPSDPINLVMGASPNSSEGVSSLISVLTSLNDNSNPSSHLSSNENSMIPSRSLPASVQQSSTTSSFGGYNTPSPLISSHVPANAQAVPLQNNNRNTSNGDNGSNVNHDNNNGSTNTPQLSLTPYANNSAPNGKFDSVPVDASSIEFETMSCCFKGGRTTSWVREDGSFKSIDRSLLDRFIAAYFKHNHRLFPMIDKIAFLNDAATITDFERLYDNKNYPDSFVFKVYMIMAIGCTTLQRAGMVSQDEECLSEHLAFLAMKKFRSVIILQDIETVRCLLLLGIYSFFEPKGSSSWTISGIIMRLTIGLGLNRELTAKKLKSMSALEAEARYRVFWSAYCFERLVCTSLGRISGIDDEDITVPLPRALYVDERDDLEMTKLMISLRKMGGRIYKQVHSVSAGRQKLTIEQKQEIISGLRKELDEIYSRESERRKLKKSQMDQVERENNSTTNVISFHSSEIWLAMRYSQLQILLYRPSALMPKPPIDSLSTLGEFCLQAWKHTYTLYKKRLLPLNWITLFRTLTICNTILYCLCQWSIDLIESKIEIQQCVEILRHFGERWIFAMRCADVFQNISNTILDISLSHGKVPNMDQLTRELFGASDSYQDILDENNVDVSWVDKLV
Method in brief: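 PURExpress in vitro transcription/translation supplied GST-tagged yeast transcription factors, either full-length or DNA-binding domain. Applied at about 100-200 nM to universal all-10-mer Agilent arrays double-stranded by primer extension, the bound protein was detected with fluorescent anti-GST. E-scores, modified Wilcoxon-Mann-Whitney statistics, were given by the Universal PBM Analysis Suite to ungapped eight-base words pooled with their reverse complements after masliner normalisation.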

Sequence	PBM E-score
CTACCTCC	0.0797
AAAGTGCA	-0.161
AAAAAGGC	0.00678
ACTGCCCT	-0.14
ACCCATAC	-0.231
GGAGAAAC	0.0897
TCACCGGA	0.343
CCCCACAC	-0.0314
CCCCTTTC	-0.0301
ACATAGAT	0.0166
CGCGGCGC	0.318
ATCGCTGA	-0.111
CAAGAGAC	-0.146
ATGTGATG	-0.162
ATCAAAGC	0.0343
TAGCTACA	-0.255
TAGCGAAA	-0.248
ACAGCTGT	-0.265
TCGGCCGA	0.197
AAGTCGAC	-0.208
AGGAGCCC	0.0224
CCTCGGCG	0.225
AACGGTCG	0.202
TGGGCTAA	-0.227
AAAAAAAG	0.0372

Sequence	PBM E-score
AAAACACA	-0.0864
CCTCAGTC	-0.204
CTTCTTAA	-0.0379
AAATGCTC	-0.116
AGGGCGCG	0.0876
AGCAATTC	-0.00758
GATGAAAA	-0.0348
CTTCAACA	-0.115
CGCCCGAA	0.0009
AAACTCAG	-0.185
CCACCATC	-0.149
ATTCCATA	-0.111
ACTAGGTC	0.033
GATCGCCC	-0.13
TCTTATCA	0.0228
AATGTTTA	-0.121
CGATTTAC	0.00852
ATTACCCA	-0.176
ACGAGCCG	-0.0642
CGACGGCC	0.252
ACAAGCTA	-0.36
TGAATTAA	-0.131
AGATTGGG	-0.079
CCTTCACC	-0.115
ACGGGGTG	0.286

Sequence	PBM E-score
ACCGTCCA	0.242
CAACTATA	-0.0129
AGGAATTC	-0.317
AAAACGCT	-0.162
CACCGCGA	0.37
ATGCAGCA	-0.171
CAACGGTG	0.346
AAAATTTC	0.0457
ACGTCAAT	-0.223
CCCCCCGA	0.14
ATGGTCCG	0.215
GTCCTGCA	-0.204
ACATTTCG	0.0112
CAAGAAAC	0.0575
ACATCAGT	-0.12
ATGCGGGC	0.087
ATGCACGC	-0.0459
CGTACAAC	-0.0258
AGTCGCAG	-0.0686
TCCTACAA	-0.175
GGTTGGAA	-0.00682
ACCAGGCT	-0.232
GCCCCGTA	0.233
CAACCCAA	-0.308
GGCCACTA	-0.0968

Sequence	PBM E-score
TGCCCACA	-0.0639
ATGAGTAG	-0.0225
ACGTTGTC	-0.138
CGAGACAG	-0.159
GACCTATC	0.0702
CATGAGCG	0.0176
GCCCTAGA	-0.0867
AATAAACT	0.0307
GAAAGTTA	0.0753
AAGCACGC	-0.0515
CCATCATC	-0.257
AACGCTAG	-0.112
ACGTCTCT	-0.174
CGATGTCA	-0.14
TCCAGGCA	-0.285
AGAACGAG	-0.252
ATATCAAC	-0.054
GCTCACAA	-0.0221
ATATATAT	0.139
CGTCCAAC	0.00327
ACCGCGTG	0.218
CTAGGCTC	-0.246
AAGACACA	-0.233
GTCCCGAA	0.121
ACCGGGTA	0.227

Sequence	PBM E-score
AAATATCT	0.0532
CAGCATGA	-0.137
AGGGTGGA	-0.277
ACTTACGA	-0.0965
CAGTGTAG	-0.263
ATAACCTC	0.0793
ATAGTATG	-0.0801
CACCCGCC	0.204
TAGGAGGA	-0.287
CCCTGGCA	-0.0609
ACCTCAAA	-0.0791
CGGGAAGC	-0.0666
GGAACTAC	0.118
GAAAAACA	-0.113
GCTTTGCA	-0.0804
CTGGCGCA	-0.19
CTTACGGC	0.283
CCGTCCTC	0.189
AACCTTTA	-0.103
AAACCGGA	0.196
AACACCCC	0.17
CTTTTAGA	0.11
CCAAGTAA	-0.125
GTGCCCAC	-0.104
CCCCCGCC	0.313

Sequence	PBM E-score
GACACAGC	0.0922
AGAGTTAT	-0.115
GACGAGTA	-0.072
TAGGGCGA	-0.281
CAAGTCTA	-0.192
TAATGAGA	-0.201
CCTGGTCC	-0.127
CCCTCCGA	0.0129
AATCTGAC	-0.1
AGTGATTA	0.064
CATACTTA	-0.2
GGCTCTCA	-0.102
ATAGAAAT	0.00501
CGACTATC	-0.0126
ATCCCCAA	-0.183
GAGCACGC	-0.214
AAAGTCGA	-0.226
ACCGTCTA	0.247
AACACGCT	-0.114
AATCATAC	-0.069
CTGTGTCC	0.136
ACTCTAGC	-0.126
CTTTTCTC	-0.106
ACTCGGTA	-0.00538
AAGATCAG	-0.182

Sequence	PBM E-score
TAGCCCTA	-0.173
CCTATTCG	-0.00606
CGCGCAGC	0.149
CTCTGATA	0.103
CTGGTTGC	0.0322
GAATTAAC	-0.0887
CAGTAGAC	-0.104
GGTGGTTA	0.193
AACACAGA	-0.21
CACGGCGC	0.246
ACGGCTAT	0.134
GGGCTCGA	0.0293
AAAATTGG	-0.156
CCGTTGTC	0.262
GCCGGAAA	0.187
CTAAGGAG	-0.33
CCCGTATC	0.0175
TAGTCACA	-0.242
GGTTGCAC	-0.0543
GAGCCTCA	-0.19
GAATCTAA	0.00348
CATCCTAC	-0.127
AGCCACTG	-0.19
AAAGGAAT	-0.0321
AGCTGGCC	-0.158

Sequence	PBM E-score
GCGATTTA	-0.0536
GATAGGGC	-0.229
CCCCCGAA	0.213
GGCACGGA	0.0996
CTCTTGTA	-0.145
CCTCTCTA	-0.101
GGGTACAC	-0.00181
AAAACCAC	0.125
GCGCGTGA	-0.0851
GACGCTTA	-0.193
ACACTAGG	-0.105
CTCCATAC	-0.0338
GAAGCTCC	0.233
CATACAGC	0.00537
CCCAAGCA	-0.194
GCTCCAGC	-0.00568
GGGAGCAA	-0.0856
GCCACGGC	0.262
AGTCGTAA	-0.0723
CACGCGGC	0.0687
CTCTGTTC	-0.239
CTAGAAAA	0.0223
CGATGGGC	-0.00924
ATGAGCTC	-0.262
CAATACTC	-0.11

Sequence	PBM E-score
AAGGACAC	-0.165
ACTGTCGC	-0.0587
GGTAAAAA	0.228
TATCCAAA	-0.241
TCTGATAA	-0.199
GCTAAAGA	0.136
GTCCTTTA	0.0817
CGCGCCAG	0.256
ACCTCGTC	-0.0783
GGCGGGAC	0.28
GATTCCAC	-0.0439
AGGACCAC	-0.182
ACGTAGAT	-0.246
CACAAAGA	-0.138
GGCTTCGA	0.0803
GGTGGAAA	0.0706
GTGCCTCA	-0.0942
GGATAATA	0.197
GTCGCAAC	0.0168
CTAACATA	-0.0708
AAAGATTC	-0.226
AAGGTGAC	-0.158
AACATGGG	0.0505
GGCATAAC	0.0221
CTGTCGGA	0.349

Sequence	PBM E-score
ACACGTGG	-0.177
AGATGCTA	-0.107
ATGACAGG	-0.102
AAATGCAT	-0.0958
ACAAGTCA	-0.151
TCCAGCCA	-0.187
ACCCTTGG	-0.207
CCAATCGC	-0.15
AGCAAGGC	-0.0791
TACAGTGA	-0.344
TGCAGGCA	-0.157
AACTTGCT	-0.123
TATTCCGA	0.17
ATTACGTC	-0.0364
CGCATAAC	0.0483
TACTGCAA	-0.235
ACCTGGAG	-0.133
GCTCGACA	-0.197
CAGGCCTC	-0.279
GACTTCCC	-0.02
CGAAACAC	-0.0151
AACAAGGC	-0.23
CACGATTC	0.0632
GCTTAACC	-0.268
AACCACTA	-0.0604

Sequence	PBM E-score
GAGTAAGA	-0.0203
GGACGGGA	0.1
AATATGAT	-0.0357
AGTGACGC	-0.0527
GTTCCTGA	-0.302
CGCTTTTA	0.19
ATCACGGC	0.162
AGTGCAGC	-0.191
ACGATCGA	-0.151
CTAGAGGC	-0.262
CCGTCTCG	0.155
GTGCCGGA	0.305
AATTGCCA	-0.27
CCATAGCG	-0.00058
ATTGTCCG	0.372
CGCATCGA	0.022
AACACCTC	0.0132
AGCCAGCT	-0.157
TATCACCA	0.161
GGTACAAA	0.202
CTCGATGA	-0.154
CATTGCAA	-0.0709
TAAAGCAA	-0.0115
CTCGCCCA	-0.267
AGGACGAA	-0.0407

Sequence	PBM E-score
AATGCCGT	0.425
CGCAGTAG	-0.0728
CATGAGCC	-0.087
ATTGGGGA	-0.0271
AATCACTA	-0.155
TGCAGCCA	-0.187
CTAGTGAC	-0.186
AGCCTTCA	-0.0978
CGCCAAAC	-0.0389
GAACCTAA	0.0325
GGAGGGAA	-0.0657
CAGACAGG	-0.0478
AGATTGGA	-0.111
CCTATACC	0.0759
GGCGATCA	-0.00285
GAAGATGC	-0.17
ACGCGGTG	0.35
AATACAAA	-0.0524
AAGGGCTG	-0.26
CCGATATC	0.228
TACGGACA	0.235
AGAATGTC	-0.276
ATCTTGTA	-0.143
ACACAATA	-0.107
TAAGCCAA	-0.123

Sequence	PBM E-score
TACACGCA	-0.241
GACAGTGA	-0.148
AACTGCTA	-0.137
GAAAGCGA	-0.205
ACATCCAT	-0.135
GATCTAGA	-0.154
AACTAAGA	-0.0165
AGCCTCTG	-0.142
CCCAAAGA	-0.0823
CAGGTGTC	-0.0436
GGAGCGAA	0.0449
ATGGCATC	-0.22
AGATTTCA	-0.0811
ATCTATTC	-0.0118
GTATTTGA	0.0316
TATTAAGA	0.0543
CGTCGCAC	0.0747
ACGGGATG	-0.00598
CCTGTTCC	-0.0917
GGGTCACA	-0.0106
GGGCAGTA	-0.0652
CGGTACGC	0.133
GAGAACAC	-0.107
CGCCATAA	0.0677
GAACCACA	-0.0522

Sequence	PBM E-score
TCGAAGCA	-0.208
ATAAGTCC	0.443
ACCCAGAT	-0.218
CGGACGTC	0.0917
GACGTGAC	-0.151
AGAGCGAG	-0.184
CCTACGCC	0.00444
GTAGACGA	-0.282
ACACACCA	-0.218
ATCACGCC	0.0472
ACATAGGT	-0.133
GCATCATA	-0.0391
GACCAACA	-0.133
ATAGAAGA	-0.05
TCATAGAA	-0.0493
GACGATAC	0.017
AGAGCCCC	0.0155
CCACATAC	-0.025
ACACTTGA	-0.313

Source: the supplement of paper PMC3334620
